Results from publication PMC7282676.
Results are given in words; binding and its absence hold for the method and conditions named. For some of these results: In cells and extracts the contact can be indirect. Some binding calls cover weakened binding; strength is not graded here.

Amino acid sequences for entries named in this document (tags omitted). A change or cut given only in a name is not applied to a line headed by its entry. Residues count along the entry.
UniProt Q9VT57: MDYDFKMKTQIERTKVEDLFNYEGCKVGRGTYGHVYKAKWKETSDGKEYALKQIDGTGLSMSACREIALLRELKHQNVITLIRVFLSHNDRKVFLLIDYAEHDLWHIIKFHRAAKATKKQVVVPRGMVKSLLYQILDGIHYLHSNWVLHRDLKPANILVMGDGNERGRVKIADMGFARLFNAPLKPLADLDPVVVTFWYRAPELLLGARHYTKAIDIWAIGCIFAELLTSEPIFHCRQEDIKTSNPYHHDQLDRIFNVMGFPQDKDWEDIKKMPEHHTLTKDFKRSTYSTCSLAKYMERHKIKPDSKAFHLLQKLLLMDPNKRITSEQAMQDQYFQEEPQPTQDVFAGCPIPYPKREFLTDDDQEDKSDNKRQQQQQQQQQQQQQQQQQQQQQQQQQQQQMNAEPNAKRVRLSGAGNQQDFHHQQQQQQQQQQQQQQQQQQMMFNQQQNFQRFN
UniProt P42003: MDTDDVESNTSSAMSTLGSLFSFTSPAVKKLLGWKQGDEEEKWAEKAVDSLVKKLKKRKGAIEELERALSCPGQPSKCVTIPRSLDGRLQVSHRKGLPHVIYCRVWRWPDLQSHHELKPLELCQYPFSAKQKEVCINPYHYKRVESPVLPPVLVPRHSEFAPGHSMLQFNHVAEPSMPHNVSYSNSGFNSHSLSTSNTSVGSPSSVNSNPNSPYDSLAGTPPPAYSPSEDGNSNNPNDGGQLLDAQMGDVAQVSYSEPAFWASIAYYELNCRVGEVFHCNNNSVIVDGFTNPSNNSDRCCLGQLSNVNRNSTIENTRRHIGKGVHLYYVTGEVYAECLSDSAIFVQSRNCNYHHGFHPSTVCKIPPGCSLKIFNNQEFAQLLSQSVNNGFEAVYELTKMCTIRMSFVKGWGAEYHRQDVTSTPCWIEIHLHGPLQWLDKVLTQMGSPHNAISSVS
BD-Mad-N2 (Mad-N2 fragment, AA1-230, as yeast two-hybrid bait): residues 1-230 of P42003
BD-Mad-N1 (Mad-N1 fragment, AA1-150, as yeast two-hybrid bait): residues 1-150 of P42003

Key:
[1] = target: GST-CDK8 (full-length Drosophila CDK8 with an N-terminal GST tag) (Drosophila) (UniProt Q9VT57); assay: pull-down; GST-CDK8 on Glutathione Sepharose 4B beads (50 uL, 0.5-1 ug protein) mixed with 500 uL E. coli cell lysate of His-tagged Mad fragments, 4°C, 3 hours; 20mM Tris-HCl pH 7.5, 10mM MgCl2, 100mM NaCl, 1mM DTT, 0.1% NP-40; Western blot with anti-His; only the target purified
[2] = target: BD-Mad-N2 (Mad-N2 fragment, AA1-230, as yeast two-hybrid bait) (Drosophila) (UniProt P42003); assay: two-hybrid; AH109 yeast; Mad fragments as GAL4-DNA-binding domain bait, full-length CDK8 as GAL4-activation domain prey; growth on SD/-Leu/-Trp/-His
[3] = target: BD-Mad-N1 (Mad-N1 fragment, AA1-150, as yeast two-hybrid bait) (Drosophila) (UniProt P42003); assay: as above

With “His-tagged full length Mad (Mad-FL, AA1-455) (from UniProt P42003 1-455)” the binding [1] was “binds”.

“His-tagged Mad-N2 fragment (AA1-230) (from UniProt P42003 1-230) (domain or fragment)” was tested, and the binding [1] was “binds”.

With “His-tagged Mad-N1 fragment (AA1-150) (from UniProt P42003 1-150) (domain or fragment)” the binding [1] was “no binding”.

In the case of “AD-CDK8 (full-length CDK8 as yeast two-hybrid prey) (from UniProt Q9VT57 1-454) (enzyme)”, the binding [2] is reported as “binds” and the binding [3] is reported as “no binding”.

For “His-tagged Mad-C2 fragment (AA151-455) (from UniProt P42003 151-455) (domain or fragment)”, the binding [1] was “binds”.

In the case of “His-tagged Mad-C1 fragment (AA231-455) (from UniProt P42003 231-455) (domain or fragment)”, the binding [1] is reported as “no binding”.
